From paper PMC9911399, “Two distinct binding modes provide the RNA-binding protein RbFox with extraordinary sequence specificity” come the findings set out here.

Sequences and labels used below:
T1: RBFOX1 RRM RbFoxmut (Fox-RRM*) (Homo sapiens, UniProt Q9NWB1 109-208, R118D;E147R;N151S;E152T)
T1 sequence: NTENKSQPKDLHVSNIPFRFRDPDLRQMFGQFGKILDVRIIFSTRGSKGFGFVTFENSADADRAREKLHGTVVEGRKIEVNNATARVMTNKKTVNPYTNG

B1: UCCACAC (DNA:RNA)
RNA: GGGAGACCGGAAUUCAGAUUGUCCUCCACACUUAAAUCCCGUCGUAGCCACCA
DNA 1: CAATCTGAATTCCGGTCTCCC
DNA 2: TGGTGGCTACGACGGGATT
B2: AGUGUUC (DNA:RNA)
RNA: B1 RNA with U25A, C26G, C27U, A28G, C29U, A30U
DNA 1: CAATCTGAATTCCGGTCTCCC
DNA 2: TGGTGGCTACGACGGGATT
B3: UUAAGUU (DNA:RNA)
RNA: B1 RNA with C26U, C27A, C29G, A30U, C31U
DNA 1: CAATCTGAATTCCGGTCTCCC
DNA 2: TGGTGGCTACGACGGGATT
B4: CCGGGGU (DNA:RNA)
RNA: B1 RNA with U25C, C27G, A28G, C29G, A30G, C31U
DNA 1: CAATCTGAATTCCGGTCTCCC
DNA 2: TGGTGGCTACGACGGGATT
B5: GUCACCU (DNA:RNA)
RNA: B1 RNA with U25G, C26U, A30C, C31U
DNA 1: CAATCTGAATTCCGGTCTCCC
DNA 2: TGGTGGCTACGACGGGATT
B6: UAGUGUC (DNA:RNA)
RNA: B1 RNA with C26A, C27G, A28U, C29G, A30U
DNA 1: CAATCTGAATTCCGGTCTCCC
DNA 2: TGGTGGCTACGACGGGATT
B7: GUGUCCU (DNA:RNA)
RNA: B1 RNA with U25G, C26U, C27G, A28U, A30C, C31U
DNA 1: CAATCTGAATTCCGGTCTCCC
DNA 2: TGGTGGCTACGACGGGATT
B8: CCAACAU (DNA:RNA)
RNA: B1 RNA with U25C, C27A, C31U
DNA 1: CAATCTGAATTCCGGTCTCCC
DNA 2: TGGTGGCTACGACGGGATT
B9: AGUCCGG (DNA:RNA)
RNA: B1 RNA with U25A, C26G, C27U, A28C, A30G, C31G
DNA 1: CAATCTGAATTCCGGTCTCCC
DNA 2: TGGTGGCTACGACGGGATT
B10: AUCGUCU (DNA:RNA)
RNA: B1 RNA with U25A, C26U, A28G, C29U, A30C, C31U
DNA 1: CAATCTGAATTCCGGTCTCCC
DNA 2: TGGTGGCTACGACGGGATT
B11: GUCCAAC (DNA:RNA)
RNA: B1 RNA with U25G, C26U, A28C, C29A
DNA 1: CAATCTGAATTCCGGTCTCCC
DNA 2: TGGTGGCTACGACGGGATT
B12: GUGGACA (DNA:RNA)
RNA: GGGAGACCGGAAUUCAGAUUGUCCGUGGACAUUAAAUCCCGUCGUAGCCACCA
DNA 1: CAATCTGAATTCCGGTCTCCC
DNA 2: TGGTGGCTACGACGGGATT
B13: UGCUUGU (DNA:RNA)
RNA: B1 RNA with C26G, A28U, C29U, A30G, C31U
DNA 1: CAATCTGAATTCCGGTCTCCC
DNA 2: TGGTGGCTACGACGGGATT
B14: ACACAUU (DNA:RNA)
RNA: B12 RNA with G25A, U26C, G27A, G28C, C30U, A31U
DNA 1: CAATCTGAATTCCGGTCTCCC
DNA 2: TGGTGGCTACGACGGGATT
B15: CGCAAUG (DNA:RNA)
RNA: B1 RNA with U25C, C26G, C29A, A30U, C31G
DNA 1: CAATCTGAATTCCGGTCTCCC
DNA 2: TGGTGGCTACGACGGGATT
B16: GCAACUC (DNA:RNA)
RNA: B1 RNA with U25G, C27A, A30U
DNA 1: CAATCTGAATTCCGGTCTCCC
DNA 2: TGGTGGCTACGACGGGATT
B17: AGGAAUU (DNA:RNA)
RNA: B12 RNA with G25A, U26G, G28A, C30U, A31U
DNA 1: CAATCTGAATTCCGGTCTCCC
DNA 2: TGGTGGCTACGACGGGATT
B18: UCGACUC (DNA:RNA)
RNA: B1 RNA with C27G, A30U
DNA 1: CAATCTGAATTCCGGTCTCCC
DNA 2: TGGTGGCTACGACGGGATT
B19: CUCUCAA (DNA:RNA)
RNA: B1 RNA with U25C, C26U, A28U, C31A
DNA 1: CAATCTGAATTCCGGTCTCCC
DNA 2: TGGTGGCTACGACGGGATT
B20: AUGUCCG (DNA:RNA)
RNA: B12 RNA with G25A, G28U, A29C, A31G
DNA 1: CAATCTGAATTCCGGTCTCCC
DNA 2: TGGTGGCTACGACGGGATT
B21: UCUACCA (DNA:RNA)
RNA: B1 RNA with C27U, A30C, C31A
DNA 1: CAATCTGAATTCCGGTCTCCC
DNA 2: TGGTGGCTACGACGGGATT
B22: UGCAUGC (DNA:RNA)
RNA: B1 RNA with C26G, C29U, A30G
DNA 1: CAATCTGAATTCCGGTCTCCC
DNA 2: TGGTGGCTACGACGGGATT
B23: AUUGGGG (DNA:RNA)
RNA: B12 RNA with G25A, G27U, A29G, C30G, A31G
DNA 1: CAATCTGAATTCCGGTCTCCC
DNA 2: TGGTGGCTACGACGGGATT
B24: CGCGCCA (DNA:RNA)
RNA: B12 RNA with G25C, U26G, G27C, A29C
DNA 1: CAATCTGAATTCCGGTCTCCC
DNA 2: TGGTGGCTACGACGGGATT
B25: UGUUUAU (DNA:RNA)
RNA: B1 RNA with C26G, C27U, A28U, C29U, C31U
DNA 1: CAATCTGAATTCCGGTCTCCC
DNA 2: TGGTGGCTACGACGGGATT
B26: AUUUCGC (DNA:RNA)
RNA: B1 RNA with U25A, C26U, C27U, A28U, A30G
DNA 1: CAATCTGAATTCCGGTCTCCC
DNA 2: TGGTGGCTACGACGGGATT
B27: CUGUCAG (DNA:RNA)
RNA: B12 RNA with G25C, G28U, A29C, C30A, A31G
DNA 1: CAATCTGAATTCCGGTCTCCC
DNA 2: TGGTGGCTACGACGGGATT
B28: GCCUGUG (DNA:RNA)
RNA: B1 RNA with U25G, A28U, C29G, A30U, C31G
DNA 1: CAATCTGAATTCCGGTCTCCC
DNA 2: TGGTGGCTACGACGGGATT
B29: GUGCUAU (DNA:RNA)
RNA: B12 RNA with G28C, A29U, C30A, A31U
DNA 1: CAATCTGAATTCCGGTCTCCC
DNA 2: TGGTGGCTACGACGGGATT
B30: AAUGCCC (DNA:RNA)
RNA: B12 RNA with G25A, U26A, G27U, A29C, A31C
DNA 1: CAATCTGAATTCCGGTCTCCC
DNA 2: TGGTGGCTACGACGGGATT
B31: CGUCACC (DNA:RNA)
RNA: B12 RNA with G25C, U26G, G27U, G28C, A31C
DNA 1: CAATCTGAATTCCGGTCTCCC
DNA 2: TGGTGGCTACGACGGGATT

Where a chain is given by its changes, count along the chain named. The list shows a part of the results.

This assay concerns the target T1, RBFOX1 RRM RbFoxmut (Fox-RRM*). The experiment in a line: EMSA; HiTS-Eq, 1 nM pool, 10 min; buffer printed only for the single-RNA assays: 10 mM Tris pH 7.5, 150 mM NaCl, 3.4 mM EDTA, 0.001% NP-40, 30 C. As to conditions: tags: His6 N-terminal (pET28a); label: 5' 32P. In a few lines: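 These values rest on relative association constants, computed from read-count changes of each RNA species versus the control reaction and normalised to the cognate motif. Reads came from free RNA recovered by 8% native PAGE after purified RbFox RRM (wild type or mutant) at increasing concentrations was equilibrated for 10 min in 50 µL with 1 nM of a 5′-radiolabelled pool with 7 randomized nucleotides and DNA-annealed flanks.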
(In general: Mobility shift assays separate free from complexed probe on a gel.)
With B1, the binding signal was 0.0933 KA relative to UGCAUGU.

Take B2: the binding signal is 0.115 KA relative to UGCAUGU.

In the case of B3, the binding signal was 0.0893 KA relative to UGCAUGU.

For B4, the binding signal is 0.123 KA relative to UGCAUGU.

In the case of B5, the binding signal was 0.0536 KA relative to UGCAUGU.

As for B6, the binding signal was 0.238 KA relative to UGCAUGU.

Turning to B7, the binding signal was 0.0761 KA relative to UGCAUGU.

On to B8, for which the binding signal was 0.141 KA relative to UGCAUGU.

Turning to B9, the binding signal is 0.104 KA relative to UGCAUGU.

In the case of B10, the binding signal is 0.089 KA relative to UGCAUGU.

Consider B11, for which the binding signal is 0.0654 KA relative to UGCAUGU.

Consider B12, for which the binding signal was 0.0497 KA relative to UGCAUGU.

Regarding B13, the binding signal was 0.428 KA relative to UGCAUGU.

Regarding B14, the binding signal was 0.081 KA relative to UGCAUGU.

For the molecule B15, the binding signal was 0.126 KA relative to UGCAUGU.

On to B16, for which the binding signal is 0.0418 KA relative to UGCAUGU.

Regarding B17, the binding signal is 0.0999 KA relative to UGCAUGU.

On to B18, for which the binding signal is 0.0668 KA relative to UGCAUGU.

Turning to B19, the binding signal was 0.0667 KA relative to UGCAUGU.

On to B20, for which the binding signal was 0.14 KA relative to UGCAUGU.

Turning to B21, the binding signal is 0.077 KA relative to UGCAUGU.

Turning to B22, the binding signal is 1.29 KA relative to UGCAUGU.

Regarding B23, the binding signal is 0.12 KA relative to UGCAUGU.

Turning to B24, the binding signal was 0.0906 KA relative to UGCAUGU.

With B25, the binding signal was 0.138 KA relative to UGCAUGU.

For the molecule B26, the binding signal was 0.0832 KA relative to UGCAUGU.

With B27, the binding signal is 0.102 KA relative to UGCAUGU.

B28: the binding signal was 0.184 KA relative to UGCAUGU.

In the case of B29, the binding signal is 0.124 KA relative to UGCAUGU.

As to B30, the binding signal is 0.0845 KA relative to UGCAUGU.

With B31, the binding signal was 0.0455 KA relative to UGCAUGU.
